# Values joined by “and” are separate entries in the source; they are usually repeats but may differ in a detail not shown here. Identical values can stand only once. This list was built around the results that the source calls inconclusive (neither active nor inactive); the mix of calls is not that of the screen. A potency beside an inconclusive call is a rough fit, not a confirmed value. Active and inactive are the calls of the source. Calls follow the shape of the dose curve; as a rule, active = well fitted activation curve with a large enough effect in the signal ratio in the repeat runs (not every such curve was filed as active); inconclusive = weak or mixed curves, or effect the other way; inactive = no such curve, though single readings can be large or run the other way; the % refers to the signal ratio.
# Test: qHTS assay for small molecule agonists of the antioxidant response element (ARE) signaling pathway (AID 743202)
# Settings: HepG2 ARE-bla reporter, beta-lactamase FRET, 16 h; activation: at 73.3 µM (top of the series) unless noted
# In short: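 Read-out: LiveBLAzer B/G FRET substrate fluorescence after 2 h at room temperature, following 16 h compound treatment at 37 C of HepG2 cells carrying an ARE-driven beta-lactamase reporter.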
# % is scaled to controls: 0 for no effect and ±100 for the full control effect; potency is read from the fitted curve at half-maximal effect; tags tell the direction and shape of the fitted curve.
Structure (SMILES),Potency,activation
Cc1ccc(O)c([C@H](CCN(C(C)C)C(C)C)c2ccccc2)c1,inconclusive: 26.6 µM,
Cc1nc2ccccn2c(=O)c1CCN1CCC(C(=O)c2ccc(F)cc2)CC1,"inconclusive: 18.8 µM [rising, partial curve]",
Cc1cc2c(cc1S(N)(=O)=O)S(=O)(=O)CCC2,inactive,
c1ccc2[nH]c(-c3cscn3)nc2c1,"inconclusive: 34.4 µM [rising, partial curve, poor fit]",
C=C(C)C(=O)OCCC[Si](Cl)(Cl)Cl,inactive,
C[C@H]1[C@H](NC(=O)/C(=N/OC(C)(C)C(=O)O)c2csc(N)n2)C(=O)N1S(=O)(=O)O (stereo in doubt),inactive,
CN(CC1(C)CCCO1)S(=O)(=O)c1ccc(Cl)c(S(N)(=O)=O)c1 (stereo not given),inactive,
CCOCCn1c(N2CCCN(C)CC2)nc2ccccc21,inactive,
c1ccc(CNc2ncnc3nc[nH]c23)cc1,inactive,
Cc1c(Cn2ccnc2)c2ccccc2n1CCC(=O)O,,inconclusive: -9.82%
c1cc2ccc3ccc4ccc5cccc6c(c1)c2c3c4c56,"inconclusive: 3.06 µM [rising, single point]",
Cc1[nH]cnc1-c1ccc(Cl)cc1,inactive,
CC1(C)S[C@@H]2[C@H](NC(=O)COc3ccccc3)C(=O)N2[C@H]1C(=O)O,inconclusive: 61.2 µM,
CCCCCCCCCCCCC,,inconclusive: -12.4%
CC(C)Nc1cccnc1N1CCN(C(=O)c2cc3cc(NS(C)(=O)=O)ccc3[nH]2)CC1,,inconclusive: 20.8%
OCC(CO)(CO)COCC(CO)(CO)CO,inactive,
NC1CCCCC1N (stereo not given),inactive,
COC(=O)c1cc(S(N)(=O)=O)ccc1OC,inactive,
CCC1COC(=O)O1 (stereo not given),inactive,
CCC(=O)O[C@]1(C(=O)SCF)[C@H](C)C[C@H]2[C@@H]3C[C@H](F)C4=CC(=O)C=C[C@]4(C)[C@@]3(F)[C@@H](O)C[C@@]21C,inactive,

Structure (SMILES),Potency,activation
COCCc1ccc(OCC(O)CNC(C)C)cc1 (stereo not given),inactive,
Nc1ccccc1S(=O)(=O)c1ccccc1,"inconclusive: 68.6 µM [rising, single point]",
CC1(C)C(=O)N(Cl)C(=O)N1Br,inconclusive: 30.6 µM,
COc1cc(C=O)ccc1O,"inconclusive: 61.6 µM [rising, partial curve, poor fit]",
CC(=O)O[C@H](CC(=O)[O-])C[N+](C)(C)C,inconclusive: 68.6 µM,
CCCCCCCCCCCCCC(=O)OC,inactive,
CCCCOc1ccc(CC(=O)NO)cc1,,inconclusive: -29.7%
Oc1ccc(Cc2ccccc2)cc1,"inconclusive: 50.4 µM [falling, partial curve, poor fit]",
CC1(C)O[C@@H]2C[C@H]3[C@@H]4CCC5=CC(=O)CC[C@]5(C)[C@@]4(F)[C@@H](O)C[C@]3(C)[C@]2(C(=O)CCl)O1,"inconclusive: 29.8 µM [rising, single point]",
CC(C)OC(=O)c1ccccc1,inactive,
COC(=O)c1ccc(C)cc1,inactive,
C[C@@H]1C[C@H]2[C@@H]3CCC4=CC(=O)C=C[C@]4(C)[C@@]3(F)[C@@H](O)C[C@]2(C)[C@@]1(O)C(=O)CO,inactive,
C=C(C)C1CC=C(C)CC1 (stereo not given),,inconclusive: 0.706% [at 94.8 µM]
Cc1cc(N)c2cc(NC(=O)Nc3ccc4nc(C)cc(N)c4c3)ccc2n1,"inconclusive: 29.8 µM [falling, partial curve, poor fit]",
Oc1cccc2cc3cccc(O)c3c(O)c12,,inconclusive: -12.6% [at 94.8 µM]
O=c1n(CCCN2CCN(c3cccc(Cl)c3)CC2)nc2ccccn12,,inconclusive: 31.9% and inconclusive: 19.6%
NCCCCCCNCCCCCCN,,inconclusive: -2.63%
CN(C)CCOC(C)(c1ccccc1)c1ccccn1 (stereo not given),"inconclusive: 68.6 µM [falling, partial curve, poor fit]",
CCCCc1cc2ccccc2c(OCCN(C)C)n1,inactive,
O=C=Nc1ccc(Cc2ccc(N=C=O)cc2)cc1,,inconclusive: 8.96% and inconclusive: -8.39%

# Source: PubChem BioAssay (Tox21)
